In patent US4122184A, “Benzimidazole insecticides” (priority 1977, dated 1978):
The name of at least one read-out is uncertain.

What was measured:
[1] = test system: Southern Armyworm; assay: Southern Armyworm Test; type: in vivo, Prodenia eridania (Lepidoptera); settings: 48 h
Description: Ten uniform Southern armyworm larvae about 1-1.5 cm. in length, grown on Henderson lima beans, are placed on excized bean leaves in petri dishes. The bean leaves are obtained and sprayed with the insecticide in the same way as are the snap bean leaves in the Mexican bean beetle test. The reference standards in this instance are leaves sprayed with 5 ml. 100 ppm DDT solution. Mortality counts are made 48 hours after spraying and again moribund larvae are counted as dead. Missing larvae which have probably been eaten are considered alive. The same rating scale is used as in the Mexican bean beetle test.

[2] = test system: Melon Aphid; assay: Melon Aphid Test; type: in vivo, Aphis gossypii (Hemiptera); settings: 24 h
Source text: Four blue hubbard squash seeds are planted per container in vermiculite and the containers watered from the bottom. After 6 days, the two weakest plants are cut off and one cotyledon and the primary leaves are removed from each of the two remaining plants. The remaining cotyledon is infested with 100 melon aphids from a stock colony by pinning the cotyledon against an aphid-infested squash cotyledon from the colony and allowing the aphids to transfer. After transfer, the colony leaf is removed. Forty-eight hours later, the infested leaves are sprayed to wetting with formulations containing graded amounts of the insecticide using a DeVilbiss atomizer at 10 psi held at 12-15 inches from the plant. Controls consist of two infested, unsprayed squash plants and two infested plants sprayed to wetting with a formulation containing 100 ppm malathion as a reference standard. The mortality is estimated 24 hours after spraying by observation using a 10 power dissecting microscope. The same rating scale is used as before.

[3] = test system: Milkweed Bug; assay: Milkweed Bug Test; type: in vivo, Oncopeltis fasciatus (Hemiptera); settings: 48 h
Description: Ten adult milkweed bugs are chilled and placed in a test cage. The cages containing the bugs are sprayed with 5 ml. of a test formulation containing a pre-determined amount of the insecticide, using a DeVilbiss atomizer at 10 psi held 33 inches from the top of the cage. After the cage has been allowed to dry, the bugs are fed and watered for 48 hours. A formulation containing 500 ppm of malathion is used as a reference standard and two unsprayed cages are kept as controls. Mortality counts are made 48 hours after spraying. Moribund adults are considered dead. The same rating scale is employed as before.

[4] = test system: Mexican Bean Beetle; assay: Mexican Bean Beetle Test; type: in vivo, Epilachna varivestis (Coleoptera); settings: 48 h
Description: Cuttings of four six-day old Bountiful snap bean plants containing two leaves with approximately 5 square inches of leaf surface, are placed in water. The leaves are sprayed to wetting with about 5-10 ml. of a formulation containing a pre-determined level of the test compound. Half of the formulation is sprayed on the top surface and half on the bottom surface of the leaf using a DeVilbiss atomizer at 10 psi held at a distance of about 18 inches from the leaf. After the leaves have dried, they are cut from the stem and placed separately in petri dishes. Ten third instar, nonmolting Mexican bean beetle larvae grown on Bountiful snap beans are placed on each leaf. Controls consist of two leaves sprayed with 5 ml. of a 500 ppm malathion formulation (reference standard), two leaves sprayed with the formulation without the active ingredient and two leaves are held as untreated controls. After 48 hours, a mortality count is made and the amount of feeding noted. Moribund larvae are counted as dead.

[5] = test system: House Fly; assay: Housefly (Stomach) Test; type: in vivo, Musca domestica (Diptera); settings: 24 h
Description: Ten chilled house flies are taken from the rearing cage and placed in a covered petri dish. Sugar cubes treated with 0.2 ml. of a formulation containing a specified level of the insecticide are placed in the petri dish one hour after the flies have been removed from the chill room. Controls consist of sugar cubes treated with 0.2 ml. of deionized water and cubes treated with 0.2 ml. of a formulation containing 500 ppm of malathion. Mortality counts are made 24 hours later. The same rating scale is used as before.

[6] = test system: Boll Weevil; assay: Boll Weevil Test; type: in vivo, Anthonomus grandis (Coleoptera); settings: 48 h
Source text: The procedure is identical to that employed for the Mexican bean beetle and the Southern armyworm, except that 10 adult boll weevils are placed on cotton leaves that have been dipped into formulations of the test compounds. The same rating scale is used.

[7] = test system: Two-spotted Spider Mite; assay: Two-spotted Spider Mite test; type: in vivo, Tetranychus urticae (Acarina); settings: 48 h
Description: The procedure in this test is the same as that in the previous aphid test, except that about 100 two-spotted spider mites from a stock colony raised on squash plants are transferred to a cut squash cotyledon. The mortality is estimated 48 hours after spraying. The same rating scale is used.

[8] = test system: House Fly; assay: Housefly (Contact) Test; type: in vivo, Musca domestica (Diptera); settings: 24 h
Description: Rearing cages containing four-day old adult house flies are chilled at 35°-40° F. for about 1 hour. One hundred flies are transferred from the rearing cage to each test cage using a small scoop. The caged flies are kept for 1-2 hours at 70°-80° F. The cages are sprayed in the same manner as described for the milkweed bug with 5 ml. of the test formulation. Two unsprayed cages are held as controls and two cages are sprayed with a 50 ppm DDT formulation as a reference standard. Mortality counts are made 24 hours after spraying. […] The same rating scale is employed as heretofore.

[9] = test system: Oriental Cockroach; assay: Oriental Roach Test; type: in vivo, Blatta orientalis (Orthoptera); settings: 24 h
Description: A rearing pan of late instar (3-4 months old) roaches is placed in a cold room for about 1 hour. Ten nymphs are taken from the pan and placed in each cage and the caged insects are kept at 70°-80° F. for 1 hour. The test cages are then sprayed in the manner indicated above in the milkweed bug test using 5 ml. of a formulation containing a specified amount of the insecticide. The test cages are held for 72 hours during which time the cockroaches are neither fed nor watered. Controls consist of 2 unsprayed cages, two cages sprayed with the formulation alone and 2 cages with a formulation containing 1000 ppm of heptachlor. Mortality counts are made 24 hours after spraying by shaking the cages lightly. All cockroaches remaining in the bottom are counted as dead.

O=[N+]([O-])c1cc(C(F)(F)F)cc2nc(C(F)(F)F)[nH]c12.[Na] [B, 2,6-bis(trifluoromethyl)-4-nitrobenzimidazole, sodium salt]
mortality rating ([1]; 100 ppm): 0 (0-10)
mortality rating ([1]; 250 ppm): 3 (31-40)
mortality rating ([1]; 500 ppm): 4 (41-50)
mortality rating ([1]; 1000 ppm): 9 (91-100)
mortality rating ([2]; 5 ppm): 0 (0-10)
mortality rating ([2]; 10 ppm): 9 (91-100)
mortality rating ([2]; 25 ppm): 8 (81-90)
mortality rating ([2]; 50 ppm): 7 (71-80)
mortality rating ([2]; 100 ppm): 7 (71-80)
mortality rating ([2]; 250 ppm): 8 (81-90)
mortality rating ([2]; 500 ppm): 9 (91-100)
mortality rating ([2]; 1000 ppm): 9 (91-100)
mortality rating ([3]; 25 ppm): 1 (11-20)
mortality rating ([3]; 50 ppm): 2 (21-30)
mortality rating ([3]; 100 ppm): 2 (21-30)
mortality rating ([3]; 250 ppm): 9 (91-100)
mortality rating ([3]; 500 ppm): 9 (91-100)
mortality rating ([3]; 1000 ppm): 9 (91-100)
mortality rating ([4]; 5 ppm): 2 (21-30)
mortality rating ([4]; 10 ppm): 7 (71-80)
mortality rating ([4]; 25 ppm): 6 (61-70)
mortality rating ([4]; 50 ppm): 8 (81-90)
mortality rating ([4]; 100 ppm): 9 (91-100)
mortality rating ([4]; 250 ppm): 9 (91-100)
mortality rating ([4]; 500 ppm): 9 (91-100)
mortality rating ([4]; 1000 ppm): 9 (91-100)
mortality rating ([5]; 25 ppm): 1 (11-20)
mortality rating ([5]; 50 ppm): 4 (41-50)
mortality rating ([5]; 100 ppm): 9 (91-100)
mortality rating ([5]; 250 ppm): 9 (91-100)
mortality rating ([5]; 500 ppm): 9 (91-100)
mortality rating ([5]; 1000 ppm): 9 (91-100)
mortality rating ([6]; 5 ppm): 6 (61-70)
mortality rating ([6]; 10 ppm): 6 (61-70)
mortality rating ([6]; 50 ppm): 9 (91-100)
mortality rating ([6]; 100 ppm): 9 (91-100)
mortality rating ([6]; 500 ppm): 9 (91-100)
mortality rating ([6]; 1000 ppm): 9 (91-100)
mortality rating ([7]; 2.5 ppm): 1 (11-20)
mortality rating ([7]; 5 ppm): 5 (51-60)
mortality rating ([7]; 10 ppm): 6 (61-70)
mortality rating ([7]; 50 ppm): 9 (91-100)
mortality rating ([7]; 100 ppm): 9 (91-100)
mortality rating ([7]; 250 ppm): 9 (91-100)
mortality rating ([7]; 500 ppm): 9 (91-100)
mortality rating ([7]; 1000 ppm): 9 (91-100)
mortality rating ([8]; 10 ppm): 3 (31-40)
mortality rating ([8]; 25 ppm): 3 (31-40)
mortality rating ([8]; 100 ppm): 9 (91-100)
mortality rating ([8]; 250 ppm): 9 (91-100)
mortality rating ([8]; 500 ppm): 9 (91-100)
mortality rating ([8]; 1000 ppm): 9 (91-100)
mortality rating ([9]; 10 ppm): 0 (0-10)
mortality rating ([9]; 50 ppm): 1 (11-20)
mortality rating ([9]; 250 ppm): 2 (21-30)
mortality rating ([9]; 500 ppm): 6 (61-70)
mortality rating ([9]; 1000 ppm): 9 (91-100)

CCCCCCOC(=O)n1c(C(F)(F)F)nc2c([N+](=O)[O-])cc(C(F)(F)F)cc21 [E, n-hexyl 2,6-bis(trifluoromethyl)-4-nitro-1-benzimidazolecarboxylate]
mortality rating ([1]; 100 ppm): 0 (0-10)
mortality rating ([1]; 250 ppm): 2 (21-30)
mortality rating ([2]; 10 ppm): 7 (71-80)
mortality rating ([2]; 25 ppm): 7 (71-80)
mortality rating ([2]; 50 ppm): 8 (81-90)
mortality rating ([2]; 250 ppm): 9 (91-100)
mortality rating ([2]; 500 ppm): 9 (91-100)
mortality rating ([2]; 1000 ppm): 9 (91-100)
mortality rating ([3]; 100 ppm): 4 (41-50)
mortality rating ([3]; 250 ppm): 8 (81-90)
mortality rating ([3]; 500 ppm): 9 (91-100)
mortality rating ([3]; 1000 ppm): 9 (91-100)
mortality rating ([4]; 25 ppm): 7 (71-80)
mortality rating ([4]; 50 ppm): 5 (51-60)
mortality rating ([4]; 100 ppm): 9 (91-100)
mortality rating ([4]; 250 ppm): 9 (91-100)
mortality rating ([4]; 500 ppm): 9 (91-100)
mortality rating ([4]; 1000 ppm): 9 (91-100)
mortality rating ([5]; 50 ppm): 1 (11-20)
mortality rating ([5]; 100 ppm): 7 (71-80)
mortality rating ([5]; 250 ppm): 8 (81-90)
mortality rating ([5]; 500 ppm): 9 (91-100)
mortality rating ([5]; 1000 ppm): 9 (91-100)
mortality rating ([6]; 5 ppm): 2 (21-30)
mortality rating ([6]; 10 ppm): 8 (81-90)
mortality rating ([6]; 50 ppm): 9 (91-100)
mortality rating ([6]; 100 ppm): 9 (91-100)
mortality rating ([6]; 250 ppm): 9 (91-100)
mortality rating ([6]; 500 ppm): 9 (91-100)
mortality rating ([6]; 1000 ppm): 9 (91-100)
mortality rating ([7]; 25 ppm): 9 (91-100)
mortality rating ([7]; 50 ppm): 8 (81-90)
mortality rating ([7]; 100 ppm): 9 (91-100)
mortality rating ([7]; 250 ppm): 9 (91-100)
mortality rating ([7]; 500 ppm): 9 (91-100)
mortality rating ([7]; 1000 ppm): 9 (91-100)
mortality rating ([8]; 25 ppm): 8 (81-90)
mortality rating ([8]; 100 ppm): 4 (41-50)
mortality rating ([8]; 250 ppm): 9 (91-100)
mortality rating ([8]; 500 ppm): 9 (91-100)
mortality rating ([8]; 1000 ppm): 9 (91-100)
mortality rating ([9]; 50 ppm): 0 (0-10)
mortality rating ([9]; 100 ppm): 2 (21-30)
mortality rating ([9]; 250 ppm): 2 (21-30)
mortality rating ([9]; 1000 ppm): 9 (91-100)

O=[N+]([O-])c1cc(C(F)(F)F)cc2c1nc(C(F)(F)F)n2S(=O)(=O)c1ccccc1 [F, 2,6-bis(trifluoromethyl)-4-nitro-1-phenylsulfonylbenzimidazole]
mortality rating ([1]; 500 ppm): 0 (0-10)
mortality rating ([1]; 1000 ppm): 4 (41-50)
mortality rating ([2]; 25 ppm): 0 (0-10)
mortality rating ([2]; 50 ppm): 2 (21-30)
mortality rating ([2]; 100 ppm): 8 (81-90)
mortality rating ([2]; 250 ppm): 9 (91-100)
mortality rating ([2]; 500 ppm): 9 (91-100)
mortality rating ([2]; 1000 ppm): 9 (91-100)
mortality rating ([3]; 10 ppm): 0 (0-10)
mortality rating ([3]; 25 ppm): 0 (0-10)
mortality rating ([3]; 50 ppm): 6 (61-70)
mortality rating ([3]; 250 ppm): 9 (91-100)
mortality rating ([3]; 500 ppm): 9 (91-100)
mortality rating ([3]; 1000 ppm): 9 (91-100)
mortality rating ([4]; 5 ppm): 0 (0-10)
mortality rating ([4]; 10 ppm): 7 (71-80)
mortality rating ([4]; 25 ppm): 8 (81-90)
mortality rating ([4]; 50 ppm): 9 (91-100)
mortality rating ([4]; 100 ppm): 9 (91-100)
mortality rating ([4]; 250 ppm): 9 (91-100)
mortality rating ([4]; 500 ppm): 9 (91-100)
mortality rating ([4]; 1000 ppm): 9 (91-100)
mortality rating ([5]; 250 ppm): 1 (11-20)
mortality rating ([5]; 500 ppm): 9 (91-100)
mortality rating ([5]; 1000 ppm): 9 (91-100)
mortality rating ([6]; 10 ppm): 4 (41-50)
mortality rating ([6]; 100 ppm): 9 (91-100)
mortality rating ([6]; 500 ppm): 9 (91-100)
mortality rating ([6]; 1000 ppm): 9 (91-100)
mortality rating ([7]; 25 ppm): 9 (91-100)
mortality rating ([7]; 50 ppm): 9 (91-100)
mortality rating ([7]; 100 ppm): 9 (91-100)
mortality rating ([7]; 250 ppm): 9 (91-100)
mortality rating ([7]; 500 ppm): 9 (91-100)
mortality rating ([7]; 1000 ppm): 9 (91-100)
mortality rating ([8]; 10 ppm): 0 (0-10)
mortality rating ([8]; 25 ppm): 0 (0-10)
mortality rating ([8]; 50 ppm): 9 (91-100)
mortality rating ([8]; 100 ppm): 9 (91-100)
mortality rating ([8]; 250 ppm): 9 (91-100)
mortality rating ([8]; 500 ppm): 9 (91-100)
mortality rating ([8]; 1000 ppm): 9 (91-100)
mortality rating ([9]; 50 ppm): 0 (0-10)
mortality rating ([9]; 100 ppm): 0 (0-10)
mortality rating ([9]; 250 ppm): 3 (31-40)
mortality rating ([9]; 500 ppm): 4 (41-50)
mortality rating ([9]; 1000 ppm): 8 (81-90)
